The values below come from PubChem BioAssay (NCI).

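1) Cells in 96-well plates. 2) Compound, 48 h, 5 concentrations. 3) Linear interpolation between surrounding doses. 4) Unreached endpoint = highest concentration. Here, GI50 denotes the concentration required for 50% inhibition of growth. At the TGI there is no net growth.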

The test system of this assay is NCI-H322M lung. Briefly: DTP human tumour cell line panel, 48 h.
The term GI50 denotes the concentration that inhibits growth by half. As usually defined, the TGI is the concentration at which net growth stops. High values mean lower sensitivity of the cells, low ones greater sensitivity of the cells. In the case of `CN1CCc2c(sc3ncnc(N/N=C/c4ccc(Cl)c(Cl)c4)c23)C1`, the GI50 was 14.5 µM and the TGI stood at 29.1 µM.

As to `OC1CCN(CCCOc2c3ccccc3nc3c2oc2ccc(Cl)cc23)CC1`, the GI50 is 1.04 µM and the TGI was 7.79 µM.

For the molecule `NS(=O)(=O)c1ccc(Nc2nc(N/N=C/c3ccccn3)nc(Nc3ccccc3)n2)cc1`, the GI50 was 0.461 µM and the TGI came out at 3.92 µM.
